{"source": "the supplement of paper PMC8728848", "binders": {"B1": {"name": "RBMC1 (Vibrio cholerae) (protein)", "chain": "QQSQRVVTADNLMYLRSGFAIDAIGTTVNNLVGGPVQGTNGGVLRAPIALDQLQSVEVTSGLYNWGGYHIVAIKFTMKDGSSVLLGSTHYASNKKVETYTVPQGKRIKQINVWTGGWLVEGFQFVY"}}, "assay_in_all_cases": "glycan array binding signal (z-score within array); higher = stronger binding", "details_in_all_cases": "glycan notation: IUPAC condensed, linker removed", "key": {"[1]": {"biological_target": "Fuc(a1-2)[Gal(a1-3)]Gal(b1-4)GlcNAc(b1-2)Man(a1-3)[Fuc(a1-2)[Gal(a1-3)]Gal(b1-4)GlcNAc(b1-2)Man(a1-6)]Man(b1-4)GlcNAc(b1-4)[Fuc(a1-6)]GlcNAc", "outline": "(§1)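 From the Consortium for Functional Glycomics database, 3228 arrays were curated, keeping only those whose protein sequence was available. Binding is given as a within-array Z-score averaged across arrays sharing a protein sequence and across linkers. Negative Z-scores can be read as non-binding.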"}, "[2]": {"biological_target": "Fuc(a1-2)[Gal(a1-3)]Gal(b1-4)GlcNAc(b1-3)GalNAc", "outline": "as §1"}, "[3]": {"biological_target": "Fuc(a1-2)[Gal(a1-3)]Gal(b1-4)GlcNAc(b1-3)[Fuc(a1-2)[Gal(a1-3)]Gal(b1-4)GlcNAc(b1-6)]GalNAc", "outline": "as §1"}, "[4]": {"biological_target": "Fuc(a1-2)[Gal(a1-3)]Gal(b1-4)GlcNAc(b1-6)GalNAc", "outline": "as §1"}, "[5]": {"biological_target": "Fuc(a1-2)[Gal(a1-3)]Gal(b1-4)[Fuc(a1-3)]Glc", "outline": "as §1"}, "[6]": {"biological_target": "Fuc(a1-2)[Gal(a1-3)]Gal(b1-4)[Fuc(a1-3)]GlcNAc", "outline": "as §1"}, "[7]": {"biological_target": "Fuc(a1-2)[Gal(a1-3)]Gal(b1-4)[Fuc(a1-3)]GlcNAc(b1-3)GalNAc", "outline": "as §1"}, "[8]": {"biological_target": "Fuc(a1-2)[Gal(a1-4)]Gal(b1-4)GlcNAc", "outline": "as §1"}, "[9]": {"biological_target": "Fuc(a1-2)[GalNAc(a1-3)]Gal", "outline": "as §1"}, "[10]": {"biological_target": "Fuc(a1-2)[GalNAc(a1-3)]Gal(b1-3)GalNAc(a1-3)[Fuc(a1-2)]Gal(b1-4)GlcNAc", "outline": "as §1"}, "[11]": {"biological_target": "Fuc(a1-2)[GalNAc(a1-3)]Gal(b1-3)GalNAc(b1-3)Gal(a1-4)Gal(b1-4)Glc", "outline": "as §1"}, "[12]": {"biological_target": "Fuc(a1-2)[GalNAc(a1-3)]Gal(b1-3)GlcNAc", "outline": "as §1"}, "[13]": {"biological_target": "Fuc(a1-2)[GalNAc(a1-3)]Gal(b1-3)GlcNAc(b1-2)Man(a1-3)[Fuc(a1-2)[GalNAc(a1-3)]Gal(b1-3)GlcNAc(b1-2)Man(a1-6)]Man(b1-4)GlcNAc(b1-4)GlcNAc", "outline": "as §1"}, "[14]": {"biological_target": "Fuc(a1-2)[GalNAc(a1-3)]Gal(b1-3)GlcNAc(b1-2)Man(a1-3)[Fuc(a1-2)[GalNAc(a1-3)]Gal(b1-3)GlcNAc(b1-2)Man(a1-6)]Man(b1-4)GlcNAc(b1-4)[Fuc(a1-6)]GlcNAc", "outline": "as §1"}, "[15]": {"biological_target": "Fuc(a1-2)[GalNAc(a1-3)]Gal(b1-3)GlcNAc(b1-3)GalNAc", "outline": "as §1"}, "[16]": {"biological_target": "Fuc(a1-2)[GalNAc(a1-3)]Gal(b1-3)GlcNAc(b1-6)GalNAc", "outline": "as §1"}, "[17]": {"biological_target": "Fuc(a1-2)[GalNAc(a1-3)]Gal(b1-4)Glc", "outline": "as §1"}, "[18]": {"biological_target": "Fuc(a1-2)[GalNAc(a1-3)]Gal(b1-4)GlcNAc", "outline": "as §1"}, "[19]": {"biological_target": "Fuc(a1-2)[GalNAc(a1-3)]Gal(b1-4)GlcNAc(b1-2)Man", "outline": "as §1"}, "[20]": {"biological_target": "Fuc(a1-2)[GalNAc(a1-3)]Gal(b1-4)GlcNAc(b1-2)Man(a1-3)[Fuc(a1-2)[GalNAc(a1-3)]Gal(b1-4)GlcNAc(b1-2)Man(a1-6)]Man(b1-4)GlcNAc(b1-4)GlcNAc", "outline": "as §1"}, "[21]": {"biological_target": "Fuc(a1-2)[GalNAc(a1-3)]Gal(b1-4)GlcNAc(b1-2)Man(a1-3)[Fuc(a1-2)[GalNAc(a1-3)]Gal(b1-4)GlcNAc(b1-2)Man(a1-6)]Man(b1-4)GlcNAc(b1-4)[Fuc(a1-6)]GlcNAc", "outline": "as §1"}, "[22]": {"biological_target": "Fuc(a1-2)[GalNAc(a1-3)]Gal(b1-4)GlcNAc(b1-3)Gal(b1-4)GlcNAc", "outline": "as §1"}, "[23]": {"biological_target": "Fuc(a1-2)[GalNAc(a1-3)]Gal(b1-4)GlcNAc(b1-3)Gal(b1-4)GlcNAc(b1-3)Gal(b1-4)GlcNAc", "outline": "as §1"}, "[24]": {"biological_target": "Fuc(a1-2)[GalNAc(a1-3)]Gal(b1-4)GlcNAc(b1-3)GalNAc", "outline": "as §1"}, "[25]": {"biological_target": "Fuc(a1-2)[GalNAc(a1-3)]Gal(b1-4)GlcNAc(b1-3)[Fuc(a1-2)[GalNAc(a1-3)]Gal(b1-4)GlcNAc(b1-6)]GalNAc", "outline": "as §1"}, "[26]": {"biological_target": "Fuc(a1-2)[GalNAc(a1-3)]Gal(b1-4)GlcNAc(b1-6)GalNAc", "outline": "as §1"}, "[27]": {"biological_target": "Fuc(a1-2)[GalNAc(a1-3)]Gal(b1-4)[Fuc(a1-3)]GlcNAc", "outline": "as §1"}, "[28]": {"biological_target": "Fuc(a1-2)[GalNAc(a1-3)]Gal(b1-4)[Fuc(a1-3)]GlcNAc(b1-3)GalNAc", "outline": "as §1"}, "[29]": {"biological_target": "Fuc(a1-2)[GalNAc(a1-4)]Gal(b1-4)GlcNAc", "outline": "as §1"}, "[30]": {"biological_target": "Fuc(a1-2)[GalNAc(b1-3)]Gal", "outline": "as §1"}, "[31]": {"biological_target": "Fuc(a1-3)GlcNAc", "outline": "as §1"}, "[32]": {"biological_target": "Fuc(a1-3)[Gal(b1-4)]Glc6S", "outline": "as §1"}, "[33]": {"biological_target": "Fuc(a1-3)[Gal(b1-4)]GlcNAc", "outline": "as §1"}, "[34]": {"biological_target": "Fuc(a1-3)[Gal(b1-4)]GlcNAc(b1-2)Man", "outline": "as §1"}, "[35]": {"biological_target": "Fuc(a1-3)[Gal(b1-4)]GlcNAc(b1-2)Man(a1-3)[Fuc(a1-3)[Gal(b1-4)]GlcNAc(b1-2)Man(a1-6)]Man(b1-4)GlcNAc(b1-4)GlcNAc", "outline": "as §1"}, "[36]": {"biological_target": "Fuc(a1-3)[Gal(b1-4)]GlcNAc(b1-2)Man(a1-3)[Fuc(a1-3)[Gal(b1-4)]GlcNAc(b1-2)Man(a1-6)]Man(b1-4)GlcNAc(b1-4)[Fuc(a1-6)]GlcNAc", "outline": "as §1"}, "[37]": {"biological_target": "Fuc(a1-3)[Gal(b1-4)]GlcNAc(b1-3)Gal(b1-3)[Fuc(a1-4)]GlcNAc", "outline": "as §1"}, "[38]": {"biological_target": "Fuc(a1-3)[Gal(b1-4)]GlcNAc(b1-3)Gal(b1-4)[Fuc(a1-3)]GlcNAc", "outline": "as §1"}, "[39]": {"biological_target": "Fuc(a1-3)[Gal(b1-4)]GlcNAc(b1-3)Gal(b1-4)[Fuc(a1-3)]GlcNAc(b1-3)Gal(b1-4)[Fuc(a1-3)]GlcNAc", "outline": "as §1"}, "[40]": {"biological_target": "Fuc(a1-3)[Gal(b1-4)]GlcNAc(b1-3)GalNAc", "outline": "as §1"}, "[41]": {"biological_target": "Fuc(a1-3)[Gal(b1-4)]GlcNAc(b1-6)GalNAc", "outline": "as §1"}, "[42]": {"biological_target": "Fuc(a1-3)[Gal(b1-4)]GlcNAc(b1-6)[Gal(b1-3)GlcNAc(b1-3)]Gal(b1-4)Glc", "outline": "as §1"}, "[43]": {"biological_target": "Fuc(a1-3)[Gal(b1-4)]GlcNAc6S", "outline": "as §1"}, "[44]": {"biological_target": "Fuc(a1-3)[Gal3S(b1-4)]Glc", "outline": "as §1"}, "[45]": {"biological_target": "Fuc(a1-3)[Gal3S(b1-4)]GlcNAc", "outline": "as §1"}}, "note": "The list shows a part of the results.", "data": [{"binder": "B1", "values": [{"measurement": "glycan array binding signal (z-score)", "setting": "[1]", "result": -0.103}, {"measurement": "glycan array binding signal (z-score)", "setting": "[2]", "result": -0.388}, {"measurement": "glycan array binding signal (z-score)", "setting": "[3]", "result": -0.078}, {"measurement": "glycan array binding signal (z-score)", "setting": "[4]", "result": -0.377}, {"measurement": "glycan array binding signal (z-score)", "setting": "[5]", "result": -0.304}, {"measurement": "glycan array binding signal (z-score)", "setting": "[6]", "result": -0.406}, {"measurement": "glycan array binding signal (z-score)", "setting": "[7]", "result": -0.353}, {"measurement": "glycan array binding signal (z-score)", "setting": "[8]", "result": -0.337}, {"measurement": "glycan array binding signal (z-score)", "setting": "[9]", "result": -0.381}, {"measurement": "glycan array binding signal (z-score)", "setting": "[10]", "result": -0.27}, {"measurement": "glycan array binding signal (z-score)", "setting": "[11]", "result": -0.314}, {"measurement": "glycan array binding signal (z-score)", "setting": "[12]", "result": -0.423}, {"measurement": "glycan array binding signal (z-score)", "setting": "[13]", "result": -0.193}, {"measurement": "glycan array binding signal (z-score)", "setting": "[14]", "result": -0.33}, {"measurement": "glycan array binding signal (z-score)", "setting": "[15]", "result": -0.331}, {"measurement": "glycan array binding signal (z-score)", "setting": "[16]", "result": -0.39}, {"measurement": "glycan array binding signal (z-score)", "setting": "[17]", "result": -0.423}, {"measurement": "glycan array binding signal (z-score)", "setting": "[18]", "result": -0.421}, {"measurement": "glycan array binding signal (z-score)", "setting": "[19]", "result": -0.34}, {"measurement": "glycan array binding signal (z-score)", "setting": "[20]", "result": 0.123}, {"measurement": "glycan array binding signal (z-score)", "setting": "[21]", "result": -0.124}, {"measurement": "glycan array binding signal (z-score)", "setting": "[22]", "result": -0.138}, {"measurement": "glycan array binding signal (z-score)", "setting": "[23]", "result": -0.467}, {"measurement": "glycan array binding signal (z-score)", "setting": "[24]", "result": -0.368}, {"measurement": "glycan array binding signal (z-score)", "setting": "[25]", "result": -0.178}, {"measurement": "glycan array binding signal (z-score)", "setting": "[26]", "result": -0.333}, {"measurement": "glycan array binding signal (z-score)", "setting": "[27]", "result": -0.277}, {"measurement": "glycan array binding signal (z-score)", "setting": "[28]", "result": -0.164}, {"measurement": "glycan array binding signal (z-score)", "setting": "[29]", "result": -0.366}, {"measurement": "glycan array binding signal (z-score)", "setting": "[30]", "result": -0.299}, {"measurement": "glycan array binding signal (z-score)", "setting": "[31]", "result": -0.338}, {"measurement": "glycan array binding signal (z-score)", "setting": "[32]", "result": -0.164}, {"measurement": "glycan array binding signal (z-score)", "setting": "[33]", "result": -0.244}, {"measurement": "glycan array binding signal (z-score)", "setting": "[34]", "result": -0.4}, {"measurement": "glycan array binding signal (z-score)", "setting": "[35]", "result": 1.67}, {"measurement": "glycan array binding signal (z-score)", "setting": "[36]", "result": 0.197}, {"measurement": "glycan array binding signal (z-score)", "setting": "[37]", "result": -0.378}, {"measurement": "glycan array binding signal (z-score)", "setting": "[38]", "result": -0.364}, {"measurement": "glycan array binding signal (z-score)", "setting": "[39]", "result": -0.383}, {"measurement": "glycan array binding signal (z-score)", "setting": "[40]", "result": -0.345}, {"measurement": "glycan array binding signal (z-score)", "setting": "[41]", "result": -0.354}, {"measurement": "glycan array binding signal (z-score)", "setting": "[42]", "result": -0.359}, {"measurement": "glycan array binding signal (z-score)", "setting": "[43]", "result": 0.277}, {"measurement": "glycan array binding signal (z-score)", "setting": "[44]", "result": -0.234}, {"measurement": "glycan array binding signal (z-score)", "setting": "[45]", "result": -0.201}]}]}
